Read counts are not given, so values of variants with three or more changes are uncertain.
B1: CPEB3 Ribozyme (parent)
chain: UAACAGGGGGCCACAGCAGAAGCGUUCACGUCGCAGCCCCUGUCAGAUUCUGGUGAAUCUGCGAAUUCUGCUGUAUAUCUC

Variants of: B1
Assay: self-cleavage, relative activity (ratio to wild type); higher = more cleavage; in vitro, sequencing
Outline: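 For each CPEB3 ribozyme variant, relative activity is its cleaved/total read fraction divided by the unmutated ribozyme's. Barcoded error-prone PCR libraries were transcribed by T7 RNA polymerase (5 hours, 37°C) and held in DNase I for 15 min before an EDTA stop, with cleavage occurring throughout. Template-switching reverse transcription and Illumina sequencing were used to read the RNAs. A 5-read minimum applied, and results are the mean of three batches.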

Q: For UAACUGGGGGCCACAGCAGAAGCGUUCACGACGCAGCCCCUGUCAGAUUCUGGUGAAUCUGCGAAUUCUGCUGUAUAUCCC [A5U U31A U80C], which self-cleavage is on record?
A: 0.56

Q: With UAACUGGGGGCCACAGCAGAAGCGUUCACGUCGCAGCCCCCGUCAGAUUCUGGUAAAUCUGCGAAUUCUGCUGUAUACCUC [A5U U41C G55A U78C] as the variant, how does the self-cleavage read?
A: 0.94

Q: For UAACUGGGGGCCACAGCAGAAGCGUCCACGUCGCAGCCCCAGGCAGAUUCUGGUGAAUCUGCGAAUACUGCUGUAUAUCUC [A5U U26C U41A U43G U67A], which self-cleavage is on record?
A: 0.19

Q: Which self-cleavage does the source give for UAACUGGGGGCCACAGCAGAAGCGUUCACGUCGCAGCCCCAGUCAGAUUCUGGUGAAUCUGCGGAUUCUGCUGUAUAUCUC [A5U U41A A64G] here?
A: 0.29

Q: With UAACUGGGGGCCACAGCAGAAGCGUUCACGGCGCAGCCCCAGUCAGAUUCUGGUGAAUCUGCGAAUUCUGCUGUAUAUCUC [A5U U31G U41A] as the variant, how does the self-cleavage read?
A: 0.38

Q: Which self-cleavage does the source give for UAACUGGGGGCCACAGCAGAAGCGUUCACGUCGCAGCCCCCGUCAGAUUCUGGAGAAUCUGCGAAUUCUGCUGUAUAUCUC [A5U U41C U54A] here?
A: 0.98

Q: Which self-cleavage does the source give for UAACUGGGGGCCACAGCAGAAGCGUUCACGUCGCAGCCCCCGUCAGAUUCUGAUGAAUCUGCGACUUCUGCUUUAUAUCUC [A5U U41C G53A A65C G73U] here?
A: 0.22

Q: With UAACUGGGGGCCACAGCAGAAGCGUCCACGUCGCAGCCCCUGUCAGAUUCUGGCGAAUCUGCGUAUUCUGCCGUAUAUCAC [A5U U26C U54C A64U U72C U80A] as the variant, how does the self-cleavage read?
A: 0.21

Q: For UAACUGGGGGCCACAGCAGAAGCGUCCACGUCGCAGCCCCUGUCAGAUUCUGGUGAAUCUGUGCAUUCUGCCGUAUAUCUC [A5U U26C C62U A64C U72C], which self-cleavage is on record?
A: 0.25

Q: For UAACUGGGGGCCACAGCAGAAGCGUUCACGCCGCAACCCCUGUCGGAUUCUGGUGAAUCUGCGAAUUCUGCUGUAUAUCUC [A5U U31C G36A A45G], which self-cleavage is on record?
A: 0.15

Q: For UAACUGGGGGCCACAGCAGAAGCGUCCACGUCGCAGCCCCUGUCGGUUUCUGGUGAAUCUGCGAAUUCUGCUGUAUAUCUC [A5U U26C A45G A47U], which self-cleavage is on record?
A: 0.23

Q: With UAACUGGGGGCCACAGCAGAAGCGUUCACGUCGCAGCCCCAGUCAGAUUCUGGUGUAUCUGCGAAUUCUGCUGUAUAUCUC [A5U U41A A56U] as the variant, how does the self-cleavage read?
A: 0.35

Q: Which self-cleavage does the source give for UAACUGGGGGCCACAGCAGAAGCGUUCACGUCGCAGCCCCCGUCAGAUUCUGGUGAAUCUGCGAGUUCUGCUGUAUAUCUC [A5U U41C A65G] here?
A: 0.73

Q: Which self-cleavage does the source give for UAACUGGGGGCCACAGCAGAAGCGCUCACGUCGCAGCCCCUGUCAGAUACUGGUGAAUCUGCGAAUUCUGCUGCAUAUCUC [A5U U25C U49A U74C] here?
A: 0.46

Q: Which self-cleavage does the source give for UAACUGGGGGCCACAGCAGAAGCGCUCACGUCGCAGCCCCUGUCAGAUUCUGGGGAAUCUGCGAAUCCUGCUGUAUAUCGC [A5U U25C U54G U67C U80G] here?
A: 0.47

Q: With UAACUGGGGGCCACAGCAGAAGCGUUCACGGCGCCGCCCCUGUCAGAUUCUGGUGAAUCUGCGAAUUCUGCUGUAUAUCUC [A5U U31G A35C] as the variant, how does the self-cleavage read?
A: 0.49

Q: Which self-cleavage does the source give for UAACUGGGGGCCACAGCAGAAGCGUUCACGUCGCAGCCCCAGUCAGAUUCUGGUAAAUCUGCGAACUCUGCUGUAUAUCUC [A5U U41A G55A U66C] here?
A: 0.27

Q: With UAACUGGGGGCCACAGCAGAAGCGCUCACGUCGCAGCCCCUGUCAGAUUCCGGUGAAUCUGCGAAUUCUGCUGUAUAUCUC [A5U U25C U51C] as the variant, how does the self-cleavage read?
A: 0.35

Q: For UAACUGGGGGCCACAGCAGAAGCGCUCACGUCGCAGCCCCAGUCAGAUUCUGGUGAAUCAGCGAAUUCUGCUGUAUAUCUC [A5U U25C U41A U60A], which self-cleavage is on record?
A: 0.23

Q: With UAACUGGGGGCCACAGCAGAAGCGUUCACGUCGCAGCCCCAGUCCGAUUCUGGUGAGUCUGCGAAUUCUGCUGUAUAUCUC [A5U U41A A45C A57G] as the variant, how does the self-cleavage read?
A: 0.19

Q: With UAACUGGGGGCCACAGCAGAAGCGUUCACGUCGCAGCCCCCGUCAGAUUCUGGUGAGUCUGCGAAUUCUGCUGUAUAUCUC [A5U U41C A57G] as the variant, how does the self-cleavage read?
A: 0.99

Q: With UAACUGGGGGCCACAGCAGAAGCGCUCACGUCGCAGCCCCUGUCAGAUUCUGGUGAAUCUGCGAAUUCCGCUGUAUAUCUC [A5U U25C U69C] as the variant, how does the self-cleavage read?
A: 0.31

Q: With UAACUGGGGGCCACAGCAGAAGCGUUCACGUCGCAGCCCCCGUCAGAUUCAGGUGAAUCUGCGAAUUCUGCUGUAUAUCUC [A5U U41C U51A] as the variant, how does the self-cleavage read?
A: 0.83

Q: With UAACUGGGGGCCACAGCAGAAGCGUACACGUCGCAGCCCCUGUCAGGUACUGGUGAAUCCGCGUAUUCUGCUGUAUAUCUC [A5U U26A A47G U49A U60C A64U] as the variant, how does the self-cleavage read?
A: 0.12

Q: Which self-cleavage does the source give for UAACUGGGGGCCACAGCAGAAGCGUACACGUCGCAGCCCCAGUCAGAUUCUGGAGAAUCUGCGAAUCCUGCUGUAUGUCUC [A5U U26A U41A U54A U67C A77G] here?
A: 0.12

Q: Which self-cleavage does the source give for UAACUGGGGGCCACAGCAGAAGCGUUCACGUCGCAGCCCCAGUCAGAUUCUGGUGAAUCUGCGAAUUCUGCUGUAUAUCCC [A5U U41A U80C] here?
A: 0.36

Q: Which self-cleavage does the source give for UAACUGGGGGCCACAGCAGAAGCGUUCACGUCGCAGCCCCAGUCAGAUUCUGGUGUAUCUGCGAGUUCUGCUGUAUAUCUC [A5U U41A A56U A65G] here?
A: 0.11

Q: For UAACUGGGGGCCACAGCAGAAGCGUUCACGUCGCAGCCCCCGUCAGGUUCUGGUAAAUCUGCGAAUUCUGCCGUAUAUCUC [A5U U41C A47G G55A U72C], which self-cleavage is on record?
A: 0.83

Q: With UAACUGGGGGCCACAGCAGAAGCGUUCACGCCGUAGCCCCUGUCAGGUUCUGGUGAGUCUGCGAAUUCUGCUGUGUAUCUC [A5U U31C C34U A47G A57G A75G] as the variant, how does the self-cleavage read?
A: 0.07

Q: For UAACUGGGGGCCACAGCAGAAGCGUUCACGUCGCAGCCCCCGUCAGAUUCUGGUGAAUCUGCUAAUUCCGCUGUAGUUCUC [A5U U41C G63U U69C U76G A77U], which self-cleavage is on record?
A: 0.63

Q: Which self-cleavage does the source give for UAACUGGGGGCCACAGCAGAAGCGCUCACGUCGCAGCCCCUGUCAGAUUCUGGUGAAUCUGCGAAUUCUGCUGUAUACCUC [A5U U25C U78C] here?
A: 0.24

Q: For UAACUGGGGGCCACAGCAGAAGCGUUCACGUCGCAGCCCCCGUCAGGUUCUGGUGAAACUGCGGAUUCUGCUGUAUAUCUC [A5U U41C A47G U58A A64G], which self-cleavage is on record?
A: 0.33

Q: Which self-cleavage does the source give for UAACUGGGGGCCACAGCAGAAGCGUACACGUCGCAGCCCCUGUCAGAUUCAGGUGAAUCCGCGAAUUCUGCUGUAUAUCUC [A5U U26A U51A U60C] here?
A: 0.41

Q: Which self-cleavage does the source give for UAACUGGGGGCCACAGCAGAAGCGUACACGUCGCAGCCCCCGUCAGAUUCUGGUGGAUCUGCGAAUUCUGCUGUAUAUCUC [A5U U26A U41C A56G] here?
A: 0.33
